The values below come from the RNAGym collection of RNA variant scans (doi:10.7554/elife.90254).

First the molecules themselves.
B1: LINE1-mini (parent)
chain: GGCAGAGCUCAACACAGCGUGGCAAAGUGGCUGUGGCUAGACUGCC

The source gives no read counts; variants with many changes may rest on few reads.

Variants of B1 are the subject of the data set. The data set can be described thus: self-cleavage, relative activity (ratio to wild type); higher = more cleavage; in vitro, sequencing; the parent is a self-cleaving ribozyme.
As for G21C C23A C42U, the self-cleavage was determined as 0.39. Then U20A U28A C37G, with 0; and G21U U28A C37G, with 0.02; and G19U G33U C46G, with 0.13. Then G21C G36C C37G C46G, with 0.07; and G21A A26U A41U, with 1.24.

In the case of U20C G22U G40U, the self-cleavage is 0.11. As for G21C U43G C46U, the self-cleavage came to 0.03. Then G21C C23A G29U G30C, with 0.45; and U20A G33U C42A, with 0.06. The value for G21U A25C G29C was 0.22; that for G21A G22C A26C G30A U32A was 0.07; that for G21U A26G U34C A39U was 0.06. Then G22A G27A G35C, with 0.23; and G21A G30A U34A G35U A39C, with 0.01; and G22A A26U C31A G35C, with 0.08.

Consider G21C A39G G40A, for which the self-cleavage was 0.03. Then U20A U34A G36U, with 0.04; and G21U G33A U34C G35C, with 0.02; and G22A A24G G30U, with 0.14. Then G19U U38G C42G, with 0.

Consider G19U U28C C37U, for which the self-cleavage came to 0.02. Regarding U20C G30C C42G, the self-cleavage stood at 0.01. Then G21U A25C A26C G27A U28G A39C, with 0.02; and U20C C42G C45U C46U, with 0.03; and U20A A26U A39G, with 0.04. As to G21U G27C C42A, the self-cleavage was found to be 0.04. The value for U20C U32A C46U was 0.4. Consider G21A C23A A39C, for which the self-cleavage turned out to be 0.14. Then G21U A24U G35U, with 0.07; and U20A G21A A24U C31G, with 0.02; and U20C G29A G33C C37U, with 0.02. The value for G21A A24U C37U was 0.03; that for U20C G33A G36U U38A was 0.08. The value for U20G C31U G36A was 0.05; that for G21U G22A U28G was 0.28. For G21C G30A U34A, the self-cleavage was determined as 0.02. Then G21U U32A A39U, with 0.01; and U20A G40U U43C, with 0.08. The value for U20A C31U G35U was 0.03; that for U20C G21U G30A U34A was 0.19; that for U20G A26U A39U was 0.2.

As for U20G G33A G35U U38C A41C, the self-cleavage amounted to 0.01. Turning to U20G G21U U34A C37A, the self-cleavage came out at 0.01. Then G21U G27A G36C, with 0.09; and U20G U34C G40C, with 0; and G21U C23U U34G, with 0.24.

Regarding G21U C37G U38A A41U, the self-cleavage came out at 0.01.

Take G19U G30A A41C: the self-cleavage came to 0.07.

With G21A A25C G35U, the self-cleavage stood at 0.05. As for G21U G22U C23A A39U, the self-cleavage was 0.21. Then G21U U38A C46A, with 0.3; and G21U U38A C46U, with 0.13. Then U20A G29U G40C, with 0.04; and U20C A25G A26U G35A, with 0.03; and G19U U32G G44A, with 0.03. The value for G21A A39C C46U was 0.42; that for G21C G22C G40C was 0.05; that for G21U G30A C46A was 0.42. As for U20A G33U G40A, the self-cleavage is 0.02.

As to U20A C31A A39U, the self-cleavage turned out to be 0.11.

Take G21A G30U U34G: the self-cleavage turned out to be 0.04. On to U20G A25G A39G, for which the self-cleavage amounted to 0.11. The value for G21U A24U G33A was 0.11; that for U20G G35U A39C A41U G44C was 0.06. Turning to U20A A26C G35U, the self-cleavage is 0.05. Then G21A A25U C37G, with 0.02; and U20C A24U G33C U34A A41C, with 0.05. The value for G19U G27U C31A U38C was 0.07; that for G19U U32G U43C was 0.01. Then U20G U28A G36U C46G, with 0.2.

With U20C G22A G36U C37U, the self-cleavage is 0. In the case of U20G G36A A41U, the self-cleavage amounted to 0.25. Regarding G21C A25U A39C, the self-cleavage is 0.1. Then G19U G29A G44A, with 0.28; and G21U A26G C37G A39U G40C, with 0.01; and G21A C37U A41U, with 0.04.

As for U20C G40U A41C, the self-cleavage came to 0.12. Consider G21C C37A G40A, for which the self-cleavage stood at 0.11. The value for G22A G27C U34G G40C was 0.03; that for U20G U28C G33C was 0.09. The value for U20C C23A C37A was 0.03; that for U20A G30U C45A was 0.32. Then U20C C23A C37A G44C, with 0.04; and G21A G29U C42A, with 0.22.

Consider U20A G21U C23G G27U G33A, for which the self-cleavage stood at 0.2. With G21U C23U A24G, the self-cleavage was determined as 1.05. Then G22A G30A G33U G40U, with 0.04; and U20G G29U C31A U32G A39G G44U, with 0.02. Then G19U G35A G36U, with 0.31; and G21U G36C C45A, with 0.02; and U20G G29U G44C, with 0.09. Then G21A C23U A25G U34G, with 0.2; and G22A C23A U43G, with 0.03. In the case of U20G U38C A39U C42U, the self-cleavage came out at 0.08. The value for U20G G29A G36C was 0.08; that for G21U U32G G40U was 0.06; that for U20G G30U G33U was 0.04. The value for U20G U32C G36A G40A U43A was 0.03; that for U20G U28G G30A was 0.38. The value for U20C G27C G36A was 0.08. Regarding U20C C31G G33U U38A A39C C45A, the self-cleavage is 0.

Turning to U20G G22A G33C, the self-cleavage stood at 0.2. Then G21A U32G A39G G44U, with 0.02; and U20G G27C G30U U32C, with 0.07. The value for U20G G36A A41G C46U was 0.18; that for U20G U32G G44C was 0.03; that for G22A C31A C45G was 0.14. The value for U20G G21C G36A was 0.02; that for G21A A26U U38A was 2.46; that for G19U U38A C46A was 0.34. In the case of U20G G21U C31U, the self-cleavage stood at 0.08. The value for U20C C23U C45A was 0.06. The value for G19U G30U A39U was 0.54; that for G21U G22C C31G G36U was 0.08.

G21U G30C G33A: the self-cleavage turned out to be 0.09. Then G19U U28C C31G C45G, with 0.05; and U20G G27U G30U A39U, with 0.34; and U20C C23G U34C G40A, with 0.04. The value for G21A U32G A41U C45A C46U was 0.04; that for U20G G44A C45A C46U was 0.02; that for G21U A26G C45A was 0.51.

Take G21U G29C C31G G44U: the self-cleavage turned out to be 0.07. On to G21U U38G A41C, for which the self-cleavage was found to be 0.02. With G21C A26C G29U G36A, the self-cleavage amounted to 0.02. Then U20A G21U A25C G33A U38G, with 0; and G21C G27C G40C, with 0.14; and U20C G30C C45G, with 0.2. As to G21U U38G G44C, the self-cleavage turned out to be 0.02. Then G21A A25U G33A, with 0.12.

Turning to G21U A25U A41U C42G G44C, the self-cleavage was 0.05. The value for U20A A24G G30A C37A G44A was 0.06. Then U20G G29U C31G U32C G33A, with 0.05; and U20A A25C C37G, with 0.02; and G21C G33A G40C, with 0.03. For the variant G21C G33U U34A G40C, the self-cleavage stood at 0.02. U20C G30A G40C: the self-cleavage worked out at 0.04. Then G21C G27A U28A G30A C31G U32A, with 0.58; and U20C A25G U28G U43A, with 0.08.

With G21C C23U G40A, the self-cleavage is 0.03.

For the variant G22A A25G G27A G29A C37G G44A, the self-cleavage came out at 0.08. Then U20C G21A C31A, with 0.35; and G21C G22U C42A, with 0.01. The value for G21C G22U G44U was 0.19; that for U20C C23G A24U was 0.15; that for U20C G21A G35U was 0.09. The value for G21U G30U C37A was 0.04; that for U20G G27A G44C was 0.33; that for G22A G27A G29A G30A C31A G44C C46U was 0.03. With U20A A26G G30C, the self-cleavage came out at 0.25. For the variant G19U G22U G30A A39C, the self-cleavage amounted to 0.32. In the case of G19U U32A A39U, the self-cleavage worked out at 0.23. The value for G21C U43G C45A was 0; that for U20A G27U G40C C45G was 0.02; that for G21A C37G A39C U43C G44U was 0.01. For the variant G21A G27A C45A, the self-cleavage was determined as 1.32. Then G21U C31U G35C U43A, with 0.01; and G19U U20A U28G G44U C45A, with 0.25. G19U U34G G40C: the self-cleavage was found to be 0.01.

In the case of U20A G27U G30A, the self-cleavage came out at 0.81. Then G21A G30A C31U, with 0.29; and G19U U20A G30C, with 1.64. The value for G21C C23U C31A G44C was 0.04; that for U20G A26U C46A was 0.08. As to G21C U34G U43A G44C, the self-cleavage stood at 0.01.

As for U20C C23U A25C C45U, the self-cleavage stood at 0.26. The value for U20C U28G G36U was 0.01.
